Source: PMC4336329 (PLoS ONE, 2015)
Hit rate of the full screen: of about 310,000 compounds, about 2,200 (0.71%) showed an effect of 50% or more. The effect is printed as a negative number. The list shows a part of the results.

Target: human ether-à-go-go-related gene (hERG) potassium channel (human, UniProt Q12809)
Test: primary screen, population patch clamp on CHO cells stably expressing hERG

Sequence of human ether-à-go-go-related gene (hERG) potassium channel (Q12809 whole entry, looked up): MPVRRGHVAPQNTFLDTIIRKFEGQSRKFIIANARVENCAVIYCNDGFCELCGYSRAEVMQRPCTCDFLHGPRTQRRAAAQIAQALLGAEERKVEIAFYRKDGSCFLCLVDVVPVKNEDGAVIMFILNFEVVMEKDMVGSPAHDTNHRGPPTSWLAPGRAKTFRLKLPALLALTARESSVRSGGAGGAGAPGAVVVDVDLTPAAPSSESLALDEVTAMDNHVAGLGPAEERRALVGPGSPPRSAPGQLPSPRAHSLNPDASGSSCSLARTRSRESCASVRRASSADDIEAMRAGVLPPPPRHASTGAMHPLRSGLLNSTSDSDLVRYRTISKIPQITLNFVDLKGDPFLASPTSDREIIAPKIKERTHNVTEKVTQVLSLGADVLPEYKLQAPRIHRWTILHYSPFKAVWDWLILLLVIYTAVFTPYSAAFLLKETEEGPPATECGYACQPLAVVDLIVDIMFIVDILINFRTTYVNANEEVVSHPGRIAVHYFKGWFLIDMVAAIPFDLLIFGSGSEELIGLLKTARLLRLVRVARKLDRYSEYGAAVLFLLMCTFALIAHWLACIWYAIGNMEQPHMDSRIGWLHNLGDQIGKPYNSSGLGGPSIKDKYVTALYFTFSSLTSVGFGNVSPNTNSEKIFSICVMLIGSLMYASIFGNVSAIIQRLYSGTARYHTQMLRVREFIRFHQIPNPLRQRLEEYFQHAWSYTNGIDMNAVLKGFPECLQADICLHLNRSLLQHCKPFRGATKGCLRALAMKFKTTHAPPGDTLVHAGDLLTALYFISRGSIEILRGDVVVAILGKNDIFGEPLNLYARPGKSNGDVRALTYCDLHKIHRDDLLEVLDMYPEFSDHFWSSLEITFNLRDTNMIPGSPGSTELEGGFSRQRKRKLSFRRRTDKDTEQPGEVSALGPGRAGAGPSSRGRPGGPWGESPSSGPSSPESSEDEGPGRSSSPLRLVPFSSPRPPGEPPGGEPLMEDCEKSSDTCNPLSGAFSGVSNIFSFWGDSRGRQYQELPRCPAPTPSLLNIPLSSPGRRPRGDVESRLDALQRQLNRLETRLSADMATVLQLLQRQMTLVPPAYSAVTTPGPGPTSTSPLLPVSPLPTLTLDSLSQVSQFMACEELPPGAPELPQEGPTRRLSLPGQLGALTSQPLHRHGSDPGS

Structure (SMILES) | hERG current change (%, negative = inhibition) at 1uM [%]
Cc1cccc(S(=O)(=O)Nc2cccc(-c3cn4ccsc4n3)c2)c1 | 3.91
O=C(c1ccc(NS(=O)(=O)c2cccc3cccnc23)cc1)N1CCCCC1 | -1.88
COc1ccc(-c2cn(-c3ccc(C)c(C)c3)c(=S)[nH]2)cc1OC | 6.32
COc1cccc(-c2nc(C#N)c(N3CCN(C(=O)c4ccco4)CC3)o2)c1 | -2.03
C/C(N)=C(/C#N)C(=O)COc1ccc(Cl)cc1Cl | 9.63
CC1(C)Cc2cccc(OCC(=O)Nc3ccccc3C(F)(F)F)c2O1 | 7.33
Cc1ccc(/C=N/NS(=O)(=O)c2ccc([N+](=O)[O-])cc2)o1 | 15.2
CCc1ccc(NC(=O)CSC2=C(C#N)C(c3ccc4c(c3)OCO4)CC(=O)N2)cc1 (centres unmarked) | 10.5
COc1ccc(NC(=O)c2ccc(NC3CC(=O)N(c4ccc(C)cc4C)C3=O)cc2)cc1 (centres unmarked) | -1.95
CCOC(=O)N1CCN(CC(O)COCCC23CC4CC(CC(C4)C2)C3)CC1.Cl (centres unmarked) | -0.536
CCSC1(SCC)N=C(N)C2(C#N)C(c3ccc(F)cc3)C12C#N (centres unmarked) | 4.83
O=S(=O)(NCCSCc1c(Cl)cccc1Cl)c1ccc2c(c1)OCCO2 | 6.62
O=C(NCC(=O)N(Cc1ccco1)C(C(=O)NC1CCCCC1)c1cccnc1)c1ccco1 (centres unmarked) | 14.3
CCCCNC(=O)CCn1c(=O)c2ccccc2n(CC(=O)Nc2ccccc2OCC)c1=O | 3.69
CCOc1ccccc1CN1CCN(C2CCC2)CC1CCO (centres unmarked) | 20
O=C(NCc1ccccc1)c1cccc(S(=O)(=O)N2CCCCC2)c1 | -13.7
Cc1ccc(S(=O)(=O)N2CCc3ccccc3C2CN2C(=O)c3ccccc3C2=O)cc1 (centres unmarked) | 4.87
CC1(C)OC(C)(C)/C(=C/Nc2ccc(O)cc2)C1=O | 7.79
Cl.OCCCCNCc1ccc(OCc2ccc(Cl)cc2)cc1 | 1.84
CC(=O)CSc1nc2c(c(=O)[nH]c(=O)n2C)n1CCCc1ccccc1 | 2.13
COc1ccc(C2(C#N)CCC(=O)N2c2ccccc2)cc1 (centres unmarked) | 8.4
CN(C)C(=O)c1ccc(NC(=O)c2cccnc2)cc1 | 7.3

Structure (SMILES) | hERG current change (%, negative = inhibition) at 1uM [%]
O=C(CCS(=O)(=O)Cc1ccccc1F)N1CCc2ccccc2C1 | 4.35
O=C1Nc2ccc(S(=O)(=O)NCCCO)c3cccc1c23 | 15.3
CSCCC(NS(=O)(=O)c1ccc(F)cc1)C(=O)NCc1ccc(S(N)(=O)=O)cc1 (centres unmarked) | 7.02
C=C(C)c1cccc(C(C)(C)NC(=O)NC2CC(C)(C)NC(C)(C)C2)c1 | 7.67
COC(=O)c1[nH]c2ccc(Cl)cc2c1NC(=O)CCN1CCOCC1 | 9.37
COc1ccc(-n2nc(C(=O)Nc3ccc4c(c3)OCO4)c3ccccc3c2=O)cc1 | 13.3
COc1ccc(S(=O)(=O)O/N=C2\CCCc3ccccc32)cc1 | 3.33
N#CCC(=O)N/N=C\c1cc(Br)ccc1OC/C=C/c1ccccc1 | 14.8
Cc1cccc(-n2c(O)c(C=Nc3ccccc3)c3ccccc3c2=O)n1 | 8.02
CC(C)CCN(C(=O)c1ccc(Br)cc1)c1c(N)n(Cc2ccccc2)c(=O)[nH]c1=O | 0.0038
CCN(CC1CCCO1)C(=O)c1cc(COc2ccc(OC)cc2Cl)on1 (centres unmarked) | 5.36
CC1(c2ccc(Cl)cc2Cl)NC(=O)N(CC(=O)N2CCN(C(=O)c3ccco3)CC2)C1=O (centres unmarked) | 2.7
O=C(O)CC(C(=O)O)N1C(=O)/C(=C/c2ccc(-c3nc4ccccc4s3)o2)SC1=S (centres unmarked) | 0.538
Cc1ccc(NC(=O)Nc2ccc3c(c2)OCO3)c(Br)c1 | 19.1
CC(NC(=O)CN(c1cccc(C(F)(F)F)c1)S(=O)(=O)c1ccc(Cl)c([N+](=O)[O-])c1)c1ccccc1 (centres unmarked) | 14.4
COc1ccccc1-c1cc(-c2cc(Cl)ccc2O)n[nH]1 | 15.1
C/C(=N\NC(=O)c1ccccn1)C12CC3CC(CC(C3)C1)C2 | 11.8
CCN(c1ccc(NC(=O)CCc2nc3sc4c(c3c(=O)[nH]2)CCCC4)cc1)C(C)C | 11.9
Cc1ccc2c(c1)NC(c1cccs1)C1=C(CC(C)(C)CC1=O)N2 (centres unmarked) | 11.5
CN(CCC#N)c1ccc(/C=C(\C#N)c2ccccn2)cc1 | 9.85
CNC(=O)CCn1nc(-c2ccccc2)c2ccccc2c1=O | 16.9
Cc1ccc(N(CC(=O)Nc2cccc(Cl)c2C)S(C)(=O)=O)cc1 | 12.5

Structure (SMILES) | hERG current change (%, negative = inhibition) at 1uM [%]
COc1ccc(NC(=O)/C=C/c2ccccc2[N+](=O)[O-])c(OC)c1 | 14.1
O=C(OCC(=O)N1CCOCC1)c1ccc(N2CCOCC2)c([N+](=O)[O-])c1 | 12.2
CCC(C)N1CC(C(=O)O)CC1=O (centres unmarked) | 10
NC(=O)COc1ccc(C23CC4CC(CC(C4)C2)C3)cc1 | 12
O=Cc1cnc(N2CCCCC2)s1 | 18.8
COc1ccc(C(=O)Nc2ccc(S(=O)(=O)NC(C)=O)cc2)cc1 | 12.5
Cc1cccc(NS(=O)(=O)c2ccc3oc(=O)ccc3c2)c1C | 20.8
CC(C)COc1ccc(C(=O)N2C(=O)c3ccc(N)cc3C2=O)cc1 | 9.3
CC(NC(=O)CN(C)S(=O)(=O)c1cnc[nH]1)c1ccccc1 (centres unmarked) | 6.38
CC(C)c1csc(CN2CCC(n3nccc3NC(=O)Cc3ccccc3)CC2)n1 | 2.39
COCCNC(=O)CCn1nc(-c2ccc(Cl)cc2)c2ccccc2c1=O | 0.283
CN1C(=O)C(Cc2ccc3c(c2)OCO3)C(=O)N(C)C1=O | -0.0301
CCOC(=O)C1CCCN(C(=S)Nc2cc(C)cc(C)c2)C1 (centres unmarked) | -6.32
COc1ccc(C(=O)Nc2ccc3c(c2)OCCO3)cc1 | 13.7
O=C(c1ccc(CSc2nc3ccncc3[nH]2)cc1)N1CCN(c2cccc(Cl)c2)CC1 | 6.24
Cc1ccc2occ(/C=N/NC(=O)c3ccc(Cl)cc3)c(=O)c2c1 | 13.9
CN1CCN(S(=O)(=O)c2cccc(C(=O)NC3CCCc4ccccc43)c2)CC1 (centres unmarked) | 7.42
CC12CCC(C/C1=N/NC(=O)COc1ccccc1Cl)C2(C)C (centres unmarked) | 5.22
Cc1cccc(C)c1NC(=O)CSc1nc2c([nH]1)c(=O)n(C)c(=O)n2C | 11.6
Cc1ccc(C#CC[N+]2(CC#Cc3ccc(C)cc3)CCCCC2)cc1.[Br-] | -51.8
Cc1c(Br)c(=O)oc2c(Br)c(O)c(O)cc12 | 5.18
Cc1ccccc1-c1nc(CN2CCC(C(=O)NC3CCCCC3)CC2)c(C)o1 | -17.2

Structure (SMILES) | hERG current change (%, negative = inhibition) at 1uM [%]
COc1ccc2nc(-c3ccc(F)cc3)sc2c1 | 4.97
CCOc1ccc(N=Cc2c(O)n(C(C)(C)C)c(=O)[nH]c2=O)cc1 | 15
O=C(CCCCn1c(=O)c2ccccc2n(CC(=O)Nc2cccc(F)c2)c1=O)NCc1ccco1 | 10.9
Cc1cc2c(cc1S(=O)(=O)CCC(=O)N(C)Cc1ccccc1)OCC(=O)N2 | -16.3
Cc1c2c(nc3nnnn13)CCCC2 | 2.62
O=C(CC1NCCNC1=O)OCc1ccccc1 (centres unmarked) | 7.51
O=C(NC1CCCCC1)C(c1ccccc1)N(Cc1ccc2c(c1)OCO2)C(=O)c1cnsn1 (centres unmarked) | 3.57
CCOc1ccccc1N1CC(C(=O)NNC(=O)c2ccc(F)cc2)CC1=O (centres unmarked) | 9.21
O=C(Nc1cccnc1)c1cccc(S(=O)(=O)Nc2cccc(Cl)c2)c1 | 5.23
CCOC(=O)C1C(=O)NC23CCCC2C1c1ccccc1O3 (centres unmarked) | 8.76
O=C(NC(=S)NCc1ccccc1)C1CCCCC1 | -1.16
Cc1ccccc1C(=O)N1CCCC(CCC(=O)N2CCN(c3ccccn3)CC2)C1 (centres unmarked) | 13.6
COc1ccc(S(=O)(=O)N2CCN(CC(=O)Nc3cccc(F)c3)CC2)cc1 | -8.66
N#Cc1c(=O)c2nc(NCc3ccccc3)ncc2n2ccccc12 | -8.04
Brc1ccccc1/C=N/N1CCCCC1 | 11.5
COc1ccc(NC2=NCC(Cc3ccc(Br)cc3)S2)cc1 (centres unmarked) | 7.69
CCC1=C2CC[C@H]3C(=O)N(C)C(=O)[C@H]3[C@H]2[C@@]2(Cc3ccccc3)C(=NCC(=O)OC)OC(=O)N2C1=O | 0.771
CCN(CC)CCNC(=O)c1ccc(Cl)c(S(=O)(=O)Nc2ccccc2OC)c1 | 5.7
COc1ccc2c(=O)c(Oc3ccc(C(=O)O)cc3)c(C(F)(F)F)oc2c1 | 1.68
O=C(C1=C[C@@H](c2csc3ccccc23)C[C@@H](OCc2ccc(CO)cc2)O1)N1CCN(Cc2ccc3c(c2)OCO3)CC1 | 3.81
